Reference: PubChem BioAssay AID894 (National Center for Advancing Translational Sciences (NCATS), 2007)
Hit rate of the full screen: of about 150,000 compounds, about 6,500 (4.3%) were called active. Inconclusive means that the source gave no clear call. Such entries were picked first, then a sample of the others. The call rests on the fitted dose curve; in most records, active means well fitted inhibition curve with a large enough effect (not every such curve was filed as active); inconclusive means small, poorly fitted or top-dose-only effect, or another doubt; inactive means no such curve, though single readings can be large or run the other way. No potency is given beside an inconclusive call; the fits are too rough.

Each compound was assayed against 15-hydroxyprostaglandin dehydrogenase [NAD(+)] (Homo sapiens) (UniProt P15428) (assay: qHTS Assay for Inhibitors of HPGD (15-Hydroxyprostaglandin Dehydrogenase)). Conditions: purified HPGD, NADH fluorescence kinetic, PGE2 substrate; activity change, negative = inhibition: stronger effect = lower value.
How it was run: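 NADH formation kinetics: reaction with 30 uM PGE2 and 1 mM NAD+ (final), 20 nM enzyme, Tris-HCl pH 8 with Tween 20, after 15 min compound preincubation at room temperature. Fluorescence change, last versus first of five reads.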
On the % scale 0 is the no-effect control and ±100 the full control effect; potency means the concentration at half of the fitted maximal effect; tags describe the fitted curve by direction and shape.

UniProt P15428, sequence (P15428 whole entry, looked up): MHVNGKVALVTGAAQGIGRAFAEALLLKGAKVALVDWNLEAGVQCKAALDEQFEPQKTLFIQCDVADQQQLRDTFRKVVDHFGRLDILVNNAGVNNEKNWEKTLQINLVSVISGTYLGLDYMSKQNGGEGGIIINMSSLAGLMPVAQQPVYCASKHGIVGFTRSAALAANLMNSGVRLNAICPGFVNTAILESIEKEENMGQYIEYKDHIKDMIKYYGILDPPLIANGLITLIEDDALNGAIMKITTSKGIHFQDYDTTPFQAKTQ

Row | Structure (SMILES) | activity change, negative = inhibition | Potency
1 | CCOC(=O)c1ccccc1OCc1cc(/C=N/n2cnnc2)ccc1OC | inactive: -15.8% | –
2 | CCOC(=O)C(Cc1ccccc1)C(=O)Nc1cccc2ccccc12 (stereo not drawn) | inactive: -15% | –
3 | O=C1NC(c2cccc(Br)c2)=N/C1=C\c1ccco1 | – | inconclusive [inhibitor, partial curve]
4 | Cc1cccc(Nc2nc(N)nc(CC(=O)CSc3ccc(Cl)cc3)n2)c1 | inactive: -6.11% | –
5 | O=c1[nH]c(-c2ccncc2)nc2ccccc12 | – | active: 7.08 µM
6 | CS(=O)(=O)N1CCC2(CCCN(Cc3ccc(C#N)cc3)C2)CC1 | inactive: -2.72% | –
7 | Cc1cccc(-n2c(C)cc(C(=O)NC3CCCCC3)c2C)c1 | – | active: 0.708 µM
8 | N[C@H](C(=O)O)c1ccc(O)c(C(=O)O)c1 | – | inconclusive [inhibitor, partial curve]
9 | Cn1c(=O)nc2n(Cc3ccccc3)c3ccccc3cc-2c1=O | – | inconclusive [inhibitor, partial curve]
10 | Brc1ccc(-c2cn3nc4c(nc3n2)CCCC4)cc1 | – | inconclusive [inhibitor, single point]
11 | CC(=O)c1cc2c(cc1NC(=O)CN1CCCCCCC1)OCO2 | inactive: -9.99% | –
12 | CCn1c(C)nc2c(=O)oc3ccccc3c21 | – | inconclusive [inhibitor, single point]
13 | Cc1nc2sc(C(c3cccc(F)c3)N3CCOCC3)c(O)n2n1 (stereo not drawn) | inactive: -2.1% | –
14 | CC1(C)[C@@H]2CC[C@@](C)(C2)[C@H]1OC(=O)c1ccccc1C(=O)O | inactive: -7.41% | –
15 | O=C(NC1CCS(=O)(=O)C1)c1ccc(-c2ccc(Br)cc2)o1 (stereo not drawn) | – | inconclusive [inhibitor, partial curve]
16 | Cn1c(=O)c(C(=O)Nc2ncccc2O)c(O)c2ccccc21 | – | active: 22.4 µM
17 | CCOc1cccc(C(=O)NNC(=O)CCC(=O)O)c1 | – | inconclusive [inhibitor, single point]
18 | CCC(=O)N(CCO)Cc1cc2ccc(C)c(C)c2[nH]c1=O | – | inconclusive [inhibitor, partial curve]
19 | Cc1ccccc1-c1nc(-c2ccc(NC(=O)c3ccc4c(c3)OCO4)cc2)no1 | – | inconclusive [inhibitor, partial curve]
20 | Cc1cccc(-c2nc(CSc3nc4c(c(=O)[nH]3)CCC4)c(C)o2)c1 | – | active: 2.82 µM
21 | CC1=C(C)/C(=N/OC(=O)c2cccc([N+](=O)[O-])c2)C=CC1=O | inactive: -13.2% | –
22 | CCOC(=O)C1=C(O)c2ccccc2C(=O)/C1=C\c1ccc(CC)cc1 | – | active: 0.891 µM
23 | CCS(=O)CCSc1nc2ccccc2s1 (stereo not drawn) | – | active: 15.8 µM
24 | CCOc1ncccc1C(=O)Nc1ccc(-c2cn3ccsc3n2)cc1 | – | inconclusive [inhibitor, partial curve]

Row | Structure (SMILES) | activity change, negative = inhibition | Potency
25 | COC(=O)CS(=O)(=O)c1nnc([C@H](Cc2ccccc2)NC(=O)OC(C)(C)C)o1 | – | active: 11.2 µM
26 | N#Cc1c(SCC(=O)N2CCCCC2)nsc1SCC(=O)N1CCCCC1 | – | active: 12.6 µM
27 | COc1cccc(C(=O)Nc2ccc(S(=O)(=O)Nc3onc(C)c3C)cc2)c1 | – | active: 35.5 µM
28 | N#CC1=C(N)N=C(SCc2cccc3ccccc23)C(C(N)=O)C12CCCCC2 (stereo not drawn) | inactive: -13.9% | –
29 | CC(=O)Nc1ccc(Nc2cc(C)nc3c(-c4ccc(Cl)cc4)cnn23)cc1 | – | inconclusive [inhibitor, partial curve]
30 | CC(C)n1c(=N)c(C(=O)NCCc2ccccc2)cc2c(=O)n3ccccc3nc21 | – | inconclusive [inhibitor, partial curve]
31 | CCCc1cc(C(=O)NNC(=S)NCC)c2ccccc2n1 | – | inconclusive [inhibitor, partial curve]
32 | O=C1OCCN1C(=O)[C@H]1[C@H](c2ccccc2)C(c2cccc(Cl)c2)=NN1c1ccccc1 | – | inconclusive [inhibitor, partial curve]
33 | Cc1cc(C(F)F)n2ncc(C(=O)NCc3ccccc3C(F)(F)F)c2n1 | – | inconclusive [inhibitor, single point]
34 | Cc1ccc(OCCNC(=O)c2ccco2)cc1C | – | inconclusive [inhibitor, partial curve]
35 | CN(C)/C=C1\C(=O)N(c2ccc([N+](=O)[O-])cc2)N=C1c1ccccc1 | inactive: -13.2% | –
36 | COc1cc(SC)ccc1C(=O)Nc1ccc(S(=O)(=O)N2CCCC2)cc1 | – | inconclusive [inhibitor, partial curve]
37 | NC(=O)CC[C@H](NC(=O)OCc1ccccc1)C(=O)OCc1ccc(Cl)cc1 | inactive: -13.3% | –
38 | CCOC(=O)c1cccc(NC(=O)c2cnccn2)c1 | – | inconclusive [inhibitor, single point]
39 | CCCCc1ccc(Nc2ncnc3nc[nH]c23)cc1 | – | inconclusive [inhibitor, single point]
40 | CC(C)CNC(=O)c1cccc(NC(=O)c2ccco2)c1 | – | inconclusive [inhibitor, partial curve]
41 | CCCCn1nc2cc(C(=O)NCC3CC3)ccc2c1OCC | – | inconclusive [inhibitor, partial curve]
42 | CC(C)OC(=O)c1nnn(-c2nonc2N)c1CN1CCc2ccccc2C1 | inactive: -9.83% | –
43 | CC(C)Nc1oc(-c2cccc3ccccc23)nc1C#N | – | inconclusive [inhibitor, partial curve]
44 | Cn1c(=O)oc2cc(S(=O)(=O)Nc3ccc4c(c3)OCCO4)ccc21 | – | inconclusive [inhibitor, partial curve]
45 | c1ccc(-c2csc3ncnc(NCC4COc5ccccc5O4)c23)cc1 (stereo not drawn) | inactive: -13.2% | –
46 | Cc1ccc(Sc2ccc(NC(=O)CCl)cc2)cc1C | – | inconclusive [inhibitor, single point]
47 | CCCCNC(=S)Nc1ccc2cn[nH]c2c1 | inactive: -12.3% | –
48 | O=C(OCCN1C(=O)c2ccccc2C1=O)c1cccc(OC(F)F)c1 | inactive: -8.09% | –
